Over roughly 33,000 sequences, “E-score (-0.5 to 0.5)” has its median near -0.035; the highest 2% begin near 0.35. This is one part of the list.
biological target: T1, Pdr3 (UniProt P33200); assay: PBM E-score (8-mer binding enrichment) (E-score (-0.5 to 0.5)); higher = stronger / more preferred TF binding; most listed sequences are background and not binding sites; conditions: protein concentration: 200 nM; construct: GST-full length
T1 sequence: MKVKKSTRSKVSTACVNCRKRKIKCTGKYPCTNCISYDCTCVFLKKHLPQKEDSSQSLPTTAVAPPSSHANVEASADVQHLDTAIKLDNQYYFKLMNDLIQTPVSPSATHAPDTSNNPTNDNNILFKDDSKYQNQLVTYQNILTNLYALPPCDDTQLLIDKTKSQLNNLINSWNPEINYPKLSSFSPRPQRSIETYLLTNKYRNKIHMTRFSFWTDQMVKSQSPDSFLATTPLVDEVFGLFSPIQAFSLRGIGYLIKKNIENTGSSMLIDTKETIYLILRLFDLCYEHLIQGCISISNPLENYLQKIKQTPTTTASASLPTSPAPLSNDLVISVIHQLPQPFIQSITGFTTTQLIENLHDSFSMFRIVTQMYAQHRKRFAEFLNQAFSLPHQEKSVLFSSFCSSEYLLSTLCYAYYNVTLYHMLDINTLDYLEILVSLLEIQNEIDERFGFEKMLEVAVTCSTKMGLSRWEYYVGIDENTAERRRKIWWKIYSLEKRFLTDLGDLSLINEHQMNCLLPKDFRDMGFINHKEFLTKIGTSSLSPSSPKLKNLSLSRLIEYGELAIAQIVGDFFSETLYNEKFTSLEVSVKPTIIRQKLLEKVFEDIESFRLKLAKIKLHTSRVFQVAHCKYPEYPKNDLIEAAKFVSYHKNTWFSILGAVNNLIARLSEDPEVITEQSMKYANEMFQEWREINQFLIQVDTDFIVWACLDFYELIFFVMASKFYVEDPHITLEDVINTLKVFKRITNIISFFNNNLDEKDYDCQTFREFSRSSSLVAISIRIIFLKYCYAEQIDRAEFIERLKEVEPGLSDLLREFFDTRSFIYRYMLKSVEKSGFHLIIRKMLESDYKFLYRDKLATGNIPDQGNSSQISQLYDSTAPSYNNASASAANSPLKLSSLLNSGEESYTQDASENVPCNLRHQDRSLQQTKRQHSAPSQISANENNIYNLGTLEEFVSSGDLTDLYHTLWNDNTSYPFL
In short: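 PURExpress in vitro transcription/translation supplied GST-tagged yeast transcription factors, either full-length or DNA-binding domain. Applied at about 100-200 nM to universal all-10-mer Agilent arrays double-stranded by primer extension, the bound protein was detected with fluorescent anti-GST. E-scores, modified Wilcoxon-Mann-Whitney statistics, were given by the Universal PBM Analysis Suite to ungapped eight-base words pooled with their reverse complements after masliner normalisation.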

Sequence	PBM E-score
GCGCATAC	0.0925
CGCAACAC	0.0854
GCGCAACC	0.105
TAACGCAA	-0.0826
CCGCGTAG	0.167
GCTAAGCC	-0.0307
GTGCCATA	-0.257
GATGATGC	-0.119
CCGTCCAG	0.13
AAGAGTGG	-0.0761
GATCCCCC	-0.0962
GGAACCAA	0.285
GGATACTA	0.184
ACACAGGC	-0.124
GAACGTTA	-0.0724
GCGAGGAC	-0.162
CGACGGAA	0.439
GTCACAAC	-0.0622
AGTTCATA	0.00136
CTTGCTTC	-0.209
AAGCACCG	-0.0946
ATAGGGAT	-0.0476
CACTGGAC	0.026
GCGCCTGA	0.0747
AACGCGCG	0.243

Sequence	PBM E-score
CTCCGGAC	0.382
ACCGAGGC	-0.103
GACGGTCA	-0.172
GGTCTCGA	0.0878
ATGGAAAT	0.139
GGCAGCGA	-0.0426
GGGATACA	0.13
CCCCTAGA	-0.274
AGAAATCA	0.0654
CCACACAC	0.127
CGAGCAAA	0.00301
AAACCGCG	0.352
CCGAGATA	0.241
GGCCAGAA	0.104
CGCTTCGA	0.121
CAGACGAA	0.199
ACAACAAA	-0.0617
CCTCGGCA	0.238
CTCTGGAA	-0.135
ACTACTTA	-0.139
TCCCGGGA	0.485
CAACGGCA	0.0569
GGCAGTTA	-0.172
GATCGCAA	0.0222
GCCACGTA	-0.208

Sequence	PBM E-score
GGGAAATA	0.0401
CTATCTGC	-0.0009
CCCGCAGC	0.199
GACAGATA	0.111
GTCATTAA	-0.00633
CAGCTACG	-0.159
CATGCTTC	0.0358
CGCGGTCC	0.384
AAATGAAC	-0.143
GTTGGTTA	-0.135
AGTCTTAT	-0.0984
AGTTTACG	-0.0637
CTACGCAA	-0.301
CCTAGCAG	-0.186
TAGAAAAA	-0.152
AACTATGA	-0.12
GAACGTCC	0.135
CCATCGAC	-0.0202
ATGGTAAC	-0.0555
AGGATAAC	-0.212
ATCGATAC	-0.0585
AGGCCATA	-0.0791
ACTTAGTG	-0.161
AGTGATGG	-0.148
CACCTGGG	-0.221

Sequence	PBM E-score
AGCCACGA	0.0342
GTCTGCAA	-0.211
AGGGGATC	-0.0528
ATTGTCAG	-0.0506
AGCGACCC	0.161
AGATAAGG	-0.11
AGGTATAT	-0.152
ACAAGCCT	-0.228
TAGTGACA	-0.049
GGTAGCTA	-0.256
GAGAGACA	-0.179
CGTAATCC	0.148
ACTGTACC	-0.0171
AGCCGCAG	-0.0155
AAGCATTC	-0.125
ATTCCGAG	0.449
CGGGGACC	0.291
CTAAGGAC	-0.108
TTAAGTAA	-0.0351
ATTTATGC	-0.111
GACAAAAC	0.102
ACGCTTAG	-0.289
AGACTACA	-0.17
AATCGTCT	-0.127
CAGGTTCG	0.0766

Sequence	PBM E-score
AGTGTATG	-0.0614
AGGCGTCA	-0.248
CTAAGGTA	-0.0153
ACTTGTCC	0.136
ATTAGCGA	-0.019
ATTACATC	0.0367
CGGAGGCC	0.233
CACTGGCA	-0.0479
CCAGCTCG	-0.00527
TCATACAA	0.00912
ATATTCTG	-0.0624
CTATTGAA	-0.0299
AATACGTC	0.19
CTTACGCA	-0.246
CACGAAGA	-0.0569
ATGTCATC	0.0018
CAACAGCC	-0.0211
CCGGTACA	0.217
AGTGCCAG	-0.125
ACGTAGTA	-0.0216
ACGGGCGA	0.117
ACTGATGG	-0.188
ACAGGTGC	-0.166
ATCTTCAA	-0.112
AATATGAG	-0.1

Sequence	PBM E-score
AAGGAATG	0.126
GACGAATA	0.164
CGTACAGA	-0.161
AGGGCATG	-0.169
AGCCTACA	-0.165
ACCGTGAA	0.162
GGGCCTGA	-0.139
CACTCGCC	0.0754
ACACGCTC	0.122
GGGGCGCA	-0.0944
ATCTAGCC	-0.0811
ACATTGAA	-0.0293
CAGACTCG	-0.18
ACCTCAGC	-0.0623
CTTGCCGA	-0.0614
ATTAGCTC	-0.132
CCGCACCG	0.255
ATAACCTA	-0.162
ACGGATAA	0.375
CCACTTCC	0.136
AGTTTGAC	-0.0271
ATCAAGAC	-0.0503
GAAACACA	0.019
GACCCATC	0.138
CGCGGAAA	0.476

Sequence	PBM E-score
CAGCGACA	-0.199
CTGCTGCA	0.0101
CGCAGAAC	0.112
CATTTCGG	0.049
TCCTCGCA	-0.0258
CAAAGATG	0.016
CCATCCTC	0.111
AGTCCTGG	-0.288
AACTTTGA	-0.052
AGGAAAGA	-0.167
ACCCGTCG	0.186
CGCATCTC	0.0914
AGCACTCG	0.11
ACAGGTTG	-0.234
CCGTTTCA	0.199
GATTGGAA	0.0613
AAGTCATA	-0.0502
GATACTAA	0.197
GTCTCACA	0.00648
AGAGGGGA	-0.0845
AACCGGCG	0.306
GCAACCGC	0.0454

From the supplement of paper PMC3334620
